Structures are written as SMILES. The list shows a part of the results.

In one test the test system is HSkMC. The test can be described thus: cytotoxicity call (relative viability < 0.9). The following applies: 10 µM.
The next test has as its system HepG2. The test can be described thus: cytotoxicity call (relative viability < 0.9). The following applies: 10 µM.
For the next test, the system named is S. aureus RN4220. The test can be described thus: growth inhibition call (relative growth <= 0.2). The conditions noted are these: 50 µM.

Regarding `CCN(CC)c1ccc(N2CC=C[C@@]34O[C@@H]5C=CCCOC(=O)[C@@H]5[C@H]3C(=O)N([C@@H](C)CO)[C@@H]4C2=O)cc1`, the cytotoxicity call with HSkMC and with HepG2 was “inactive” each time. Further, the growth inhibition call in the test on S. aureus RN4220 was “inactive”.
As for `C[C@@H]1CN([C@@H](C)CO)C(=O)c2cc(NC(=O)CCCN(C)C)ccc2O[C@H]1CN(C)Cc1ccc2c(c1)OCO2`, the cytotoxicity call in the test with HSkMC and with HepG2 was “inactive” throughout. The growth inhibition call with S. aureus RN4220 is “inactive”.
On to `C[C@@H]1CN([C@H](C)CO)C(=O)c2cc(NC(=O)CCN3CCOCC3)ccc2O[C@@H]1CN(C)S(=O)(=O)c1ccccc1`, for which the cytotoxicity call in the test with HSkMC and with HepG2 was “inactive” in each case. The growth inhibition call with S. aureus RN4220 was “inactive”.
In the case of `C[C@H]1CN([C@@H](C)CO)C(=O)c2ccccc2-c2ccccc2CO[C@H]1CN(C)Cc1cccc2c1OCCCO2`, the cytotoxicity call in the test on HSkMC and with HepG2 was “inactive” each time. Also, the growth inhibition call in the test on S. aureus RN4220 is “inactive”.
On to `CCC(C(C)O)n1ncn(-c2ccc(N3CCN(c4ccc(OCC5COC(Cn6cncn6)(c6ccc(F)cc6F)C5)cc4)CC3)cc2)c1=O` (configuration not stated), for which the cytotoxicity call in the test on HSkMC is “inactive”. In the test on HepG2, the cytotoxicity call is “active”. The growth inhibition call in the test with S. aureus RN4220 was “inactive”.
For `Nc1cccc2c(=O)[nH][nH]c(=O)c12`, the cytotoxicity call in the test with HSkMC and in the test on HepG2 was “inactive” in each case. In the test with S. aureus RN4220, the growth inhibition call was “inactive”.
As for `C[C@@H]1CN([C@H](C)CO)C(=O)Cc2cc(NC(=O)C3CC3)ccc2O[C@@H]1CN(C)C(=O)Nc1ccc(F)cc1`, the cytotoxicity call in the test on HSkMC and in the test on HepG2 was “inactive” each time. For the same compound, the growth inhibition call in the test on S. aureus RN4220 is “inactive”.
With `Cc1ccc(S(=O)(=O)N2C[C@H](O)COC[C@H]3O[C@@H](CC(=O)N4CCc5ccccc5C4)CC[C@@H]32)cc1`, the cytotoxicity call with HSkMC and in the test on HepG2 was “inactive” each time. Further, the growth inhibition call with S. aureus RN4220 was “inactive”.
Consider `CCn1c(N)nc2c1c(=O)[nH]c(=O)n2C`, for which the cytotoxicity call in the test with HSkMC and with HepG2 was “inactive” throughout. The growth inhibition call in the test on S. aureus RN4220 was “inactive”.
On to `C[C@@H]1CCCCO[C@H](CN(C)C(=O)NC2CCCCC2)[C@@H](C)CN([C@@H](C)CO)C(=O)c2cc(NS(=O)(=O)c3cccs3)ccc2O1`, for which the cytotoxicity call in the test with HSkMC and in the test on HepG2 was “inactive” in each case. Besides, in the test with S. aureus RN4220, the growth inhibition call was “inactive”.
`C[C@@H]1CN([C@H](C)CO)C(=O)c2cc(NC(=O)C3CC3)ccc2O[C@H]1CN(C)C(=O)Nc1ccc2c(c1)OCO2`: the cytotoxicity call with HSkMC and in the test on HepG2 was “inactive” in each case. The growth inhibition call with S. aureus RN4220 was “inactive”.
For the compound `C[C@@H]1CN([C@H](C)CO)C(=O)c2cccc(NC(=O)C3CCOCC3)c2O[C@H]1CN(C)Cc1ccc(C(=O)O)cc1`, the cytotoxicity call with HSkMC and with HepG2 was “inactive” throughout. The growth inhibition call with S. aureus RN4220 is “inactive”.
Consider `CO[C@H]1CN(C)C(=O)c2cc(NC(=O)Nc3ccc(Cl)cc3)ccc2OC[C@@H](C)N(C(=O)Nc2c(C)noc2C)C[C@@H]1C`, for which the cytotoxicity call with HSkMC and in the test on HepG2 was “inactive” in each case. Besides, in the test with S. aureus RN4220, the growth inhibition call was “inactive”.
For the compound `NS(=O)(=O)c1cc2c(cc1C(F)(F)F)NC(Cc1ccccc1)NS2(=O)=O` (configuration not stated), the cytotoxicity call in the test on HSkMC and with HepG2 was “inactive” each time. Moreover, the growth inhibition call in the test with S. aureus RN4220 is “inactive”.
For the compound `CCCN(C)C[C@H]1Oc2cc(C#Cc3ccc(OC)cc3)ccc2S(=O)(=O)N([C@@H](C)CO)C[C@H]1C`, the cytotoxicity call with HSkMC and in the test with HepG2 was “inactive” each time. In addition, in the test on S. aureus RN4220, the growth inhibition call was “inactive”.
On to `COCC#Cc1ccc2c(c1)O[C@H](CN(C)C(=O)CN(C)C)[C@@H](C)CN([C@H](C)CO)S2(=O)=O`, for which the cytotoxicity call with HSkMC and in the test with HepG2 was “inactive” throughout. Also, the growth inhibition call in the test on S. aureus RN4220 was “inactive”.
Take `COc1cc(NC(=O)CCN2CCC(OC(=O)Nc3ccccc3-c3ccccc3)CC2)c(Cl)cc1CNC[C@H](O)c1ccc(O)c2nc(O)ccc12`: the cytotoxicity call in the test with HSkMC was “inactive”. The cytotoxicity call in the test with HepG2 was “active”. Also, the growth inhibition call with S. aureus RN4220 was “inactive”.
Take `C[C@H]1CN([C@@H](C)CO)C(=O)c2cc(NS(=O)(=O)c3ccc(F)cc3)ccc2O[C@@H]1CN(C)Cc1ccc(Oc2ccccc2)cc1`: the cytotoxicity call in the test with HSkMC and with HepG2 was “inactive” each time. Moreover, the growth inhibition call in the test with S. aureus RN4220 was “inactive”.
As for `COc1ccc(NC(=O)N(C)C[C@H]2Oc3ccc(NS(C)(=O)=O)cc3C(=O)N([C@H](C)CO)C[C@@H]2C)cc1`, the cytotoxicity call with HSkMC and in the test with HepG2 was “inactive” throughout. Further, the growth inhibition call in the test with S. aureus RN4220 was “inactive”.
In the case of `C[C@H]1CCCCO[C@@H](CN(C)Cc2ccc(C(F)(F)F)cc2)[C@@H](C)CN([C@@H](C)CO)C(=O)c2cc(NC(=O)Cc3ccccc3)ccc2O1`, the cytotoxicity call in the test with HSkMC and in the test with HepG2 was “inactive” in each case. The growth inhibition call in the test with S. aureus RN4220 was “inactive”.
As to `C=C(C)CNc1nc(-c2ccccc2)c(-c2ccccc2)s1`, the cytotoxicity call with HSkMC and in the test on HepG2 was “inactive” each time. The growth inhibition call with S. aureus RN4220 was “inactive”.
For the compound `O=C(/C=C/c1ccccc1)C1CC1`, the cytotoxicity call in the test on HSkMC and in the test with HepG2 was “inactive” each time. Further, in the test with S. aureus RN4220, the growth inhibition call was “inactive”.
For `C[C@@H]1CCCCO[C@@H](CN(C)Cc2ccccc2)[C@H](C)CN([C@@H](C)CO)C(=O)c2cc(NC(=O)Nc3ccccc3)ccc2O1`, the cytotoxicity call in the test with HSkMC was “inactive”. Moreover, the cytotoxicity call in the test with HepG2 was “active”. Besides, the growth inhibition call with S. aureus RN4220 was “inactive”.
For the compound `C[C@H](CO)N1C[C@H](C)[C@H](CN(C)C(=O)Nc2cccc(F)c2)Oc2cc(C#CC3(O)CCCC3)ccc2S1(=O)=O`, the cytotoxicity call in the test on HSkMC and in the test with HepG2 was “inactive” in each case. For the same compound, the growth inhibition call in the test on S. aureus RN4220 is “inactive”.
For the compound `CC(C)[Si]1(C(C)C)OCc2cc(CCCc3cc4c(c(CCc5ccccc5)n3)[Si](C(C)C)(C(C)C)OC4)nc(CCc3ccccc3)c21`, the cytotoxicity call in the test on HSkMC and in the test on HepG2 was “inactive” each time. The growth inhibition call in the test on S. aureus RN4220 was “inactive”.
Take `Cc1noc(C)c1NC(=O)N(C)C[C@H]1Oc2ncc(C#CCN(C)C)cc2C(=O)N([C@@H](C)CO)C[C@@H]1C`: the cytotoxicity call with HSkMC and with HepG2 was “inactive” throughout. In addition, the growth inhibition call with S. aureus RN4220 was “inactive”.
With `Cc1cn2c(=O)c(C(=O)O)cnc2s1`, the cytotoxicity call in the test on HSkMC and in the test on HepG2 was “inactive” in each case. The growth inhibition call in the test on S. aureus RN4220 is “inactive”.
As to `C=C(C)C(=O)N1CCC=CC1=O`, in the test on HSkMC (human skeletal muscle cells), the cytotoxicity call is “active”. Also, the cytotoxicity call in the test with HepG2 is “inactive”. For the same compound, the growth inhibition call in the test with S. aureus RN4220 was “inactive”.
As to `CC(C)NC(=O)Nc1ccc2c(c1)C(=O)N([C@H](C)CO)C[C@H](C)[C@@H](CN(C)S(=O)(=O)c1ccccc1)O2`, the cytotoxicity call with HSkMC and in the test with HepG2 was “inactive” throughout. Besides, the growth inhibition call in the test with S. aureus RN4220 was “inactive”.

The values above are taken from the antibiotic and cytotoxicity screens of Wong et al. (2023).
